# Data reported in PubChem BioAssay AID1645887 (National Center for Advancing Translational Sciences (NCATS), 2021).
# Values joined by “and” are separate entries in the source; they are usually repeats but may differ in a detail not shown here. Equal entries are not always repeated. Screen size: about 16,000 compounds; about 40 (0.2%) were called active. Roughly 1% stayed inconclusive and do not appear here. Calls follow the shape of the dose curve; as a rule, active = well fitted activation curve with a large enough effect; inconclusive = small, poorly fitted or top-dose-only effect, or another doubt; inactive = no such curve, though single readings can be large or run the other way. The list shows a part of the results. Positions of bridges follow the written chain, without caps; N, C: chain ends. Non-standard residues stand in square brackets, D forms with d. Residues, ends and D or L forms follow the SMILES beside them. *: point of attachment. Dab(CH2SO3H) = N[C@@H](CCNCS(=O)(=O)O)C(=O)O; hArg = N=C(N)NCCCC[C@H](N)C(=O)O; X8 = CC[C@@H](C)CCCCC(=O)*; Dab = NCC[C@H](N)C(=O)O; Mpa = O=C(O)CCS
# Target: Rap guanine nucleotide exchange factor 4 (Homo sapiens) (UniProt Q8WZA2)
# Sequence of UniProt Q8WZA2 (Q8WZA2 whole entry, looked up): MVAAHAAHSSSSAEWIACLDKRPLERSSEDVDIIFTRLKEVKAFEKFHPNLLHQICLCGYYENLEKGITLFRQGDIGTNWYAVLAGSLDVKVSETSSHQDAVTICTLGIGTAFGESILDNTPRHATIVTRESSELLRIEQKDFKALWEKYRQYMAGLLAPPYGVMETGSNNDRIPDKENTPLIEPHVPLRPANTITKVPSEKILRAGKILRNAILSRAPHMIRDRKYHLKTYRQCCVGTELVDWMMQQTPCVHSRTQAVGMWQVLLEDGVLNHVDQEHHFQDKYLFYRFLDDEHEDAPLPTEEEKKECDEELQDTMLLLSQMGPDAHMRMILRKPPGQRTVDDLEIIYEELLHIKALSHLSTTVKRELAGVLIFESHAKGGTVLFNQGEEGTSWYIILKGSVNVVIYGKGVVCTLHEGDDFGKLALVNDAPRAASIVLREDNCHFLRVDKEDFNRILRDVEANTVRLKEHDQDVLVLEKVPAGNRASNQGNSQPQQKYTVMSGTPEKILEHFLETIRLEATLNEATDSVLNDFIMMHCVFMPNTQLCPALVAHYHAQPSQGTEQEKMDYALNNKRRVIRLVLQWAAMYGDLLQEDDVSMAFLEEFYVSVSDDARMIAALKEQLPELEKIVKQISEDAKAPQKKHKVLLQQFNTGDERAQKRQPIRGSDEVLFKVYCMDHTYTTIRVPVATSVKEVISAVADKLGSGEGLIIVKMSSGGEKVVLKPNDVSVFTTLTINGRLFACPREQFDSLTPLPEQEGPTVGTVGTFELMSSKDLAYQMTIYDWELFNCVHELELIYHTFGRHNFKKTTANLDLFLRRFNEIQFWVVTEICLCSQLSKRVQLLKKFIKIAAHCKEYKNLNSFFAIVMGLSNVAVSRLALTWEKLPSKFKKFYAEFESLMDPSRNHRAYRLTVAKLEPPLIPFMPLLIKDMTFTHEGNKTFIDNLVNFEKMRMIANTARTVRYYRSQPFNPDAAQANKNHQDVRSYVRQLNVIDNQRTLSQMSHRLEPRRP
# Test: Validation qHTS for agonist of cAMP-regulated guanine nucleotide exchange factor 4 (EPAC2);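 as to activation: exchange makes BODIPY-GDP fluorescence drop when released from Rap1B; series mostly up to about 150 µM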
# Details: EPAC2 Rap1B BODIPY-GDP exchange, fluorescence; activation: hits give high values
# Method in brief: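 Fluorescent exchange assay: 100 nM EPAC2 with 250 nM RAP1B-BODIPY-GDP and 50 uM GDP; compound added, 5 min at room temperature, then read (ex 480/em 540 nm) every 5 min for 30 min. Normalized to 6.5 mM cAMP agonist control.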
# % is scaled to controls: 0 for no effect and ±100 for the full control effect; potency is read from the fitted curve at half-maximal effect.
Structure (SMILES),activation,Potency
CSC(=N)N,inactive: -2.14% and inactive: -15.7%,–
O=c1c(CCc2ccccc2)nc2cncnc2n1Cc1ccccc1Cl,inactive: -25.1%,–
CN(C)Cc1ccccc1-c1nc(N(C)Cc2ccco2)c2ccccc2n1,inactive: -5.11%,–
CN(CCCN1c2ccccc2CCc2ccccc21)CC(=O)c1ccc(Cl)cc1,inactive: 13.3%,–
CC(=O)[C@@]1(O)[C@H](O)CC2C3CCC4CC(O)CC[C@]4(C)C3CC[C@@]21C (stereo partly specified),inactive: -20.8%,–
O=C1CCN(Cc2cccnc2)CCN1[C@H](CO)c1ccccc1,inactive: -1.15%,–
CN(C)c1cc(NC(=O)CNC(C)(C)C)c(O)c2c1C[C@@H]1C[C@H]3[C@H](N(C)C)C(=O)C(C(N)=O)=C(O)[C@@]3(O)C(=O)C1=C2O,inactive: -9.07%,–
CCCCCCCCCC[n+]1ccc(/C=C/c2c[nH]c3ccccc23)c2ccccc21,inactive: -5.9%,–
COc1cc(/C=C\c2ccc(OC)cc2OC)cc(OC)c1,inactive: -2.88%,–
O=C(Nc1cccc(F)c1)N1CC[C@@]2(CCCN(C(=O)c3ccco3)C2)C1,inactive: -13%,–
Cc1cc(C(=O)NCC2CCC3(CCN(Cc4cc(F)ccc4F)CC3)O2)n(C)n1 (stereo unspecified),inactive: -2.93%,–
COc1cc2c(c(OC)c1OC)-c1ccc(OC)c(=O)cc1C(NC(C)=O)CC2 (stereo unspecified),inactive: -9.19%,–
N#Cc1ccc(CN2CCC3(CC2)CCN(S(=O)(=O)c2ccccc2)CC3)cc1,inactive: 0.696%,–
COc1ccccc1N1CCN(c2nc(CNC(=O)c3ccc4c(c3)OCO4)nc3ccccc23)CC1,inactive: -0.552%,–
COc1cc(C)c(C(=O)Oc2cc(C)c(C(=O)O)c(O)c2C)c(OC)c1C,inactive: -17.2%,–
O=C1NCC2(CCN(CCc3ccccc3)CC2)O1,inactive: -0.785% and inactive: -5.15%,–
O=C(NC1CCN(Cc2ccccc2)C1)c1cnn(-c2ncc3c(n2)-c2ccccc2CC3)c1C1CC1 (stereo unspecified),inactive: -4.15%,–
Clc1ccc2c(c1)CCc1cccnc1C2=C1CCNCC1,inactive: -8.09% and inactive: -1.94%,–
CCNc1ncc2ncc(=O)n(Cc3ccc(F)cc3)c2n1,inactive: -6.85%,–
CC[C@@H](C)CCCCC(=O)N[C@@H](CCNCS(=O)(=O)O)C(=O)N[C@H](C(=O)N[C@@H](CCNCS(=O)(=O)O)C(=O)N[C@H]1CCNC(=O)[C@H]([C@@H](C)O)NC(=O)[C@H](CCNCS(=O)(=O)O)NC(=O)[C@H](CCNCS(=O)(=O)O)NC(=O)[C@H](CC(C)C)NC(=O)[C@@H](CC(C)C)NC(=O)[C@H](CCNCS(=O)(=O)O)NC1=O)[C@@H](C)O (X8-[Dab(CH2SO3H)]T[Dab(CH2SO3H)][Dab][Dab(CH2SO3H)][dL]L[Dab(CH2SO3H)][Dab(CH2SO3H)]T; lactam 4-C),inactive: -10.2%,–
Cc1ncc2c(c1CNC(=O)c1ccccc1F)CCN(C(=O)c1ccccc1-n1cccn1)C2,inactive: -26.7%,–

Structure (SMILES),activation,Potency
O=C(Cn1c(=O)sc2ccc(Cl)cc21)N1CCN(CCO)CC1,inactive: -25.1%,–
O=C1NC(=O)c2cc(Nc3ccccc3)c(Nc3ccccc3)cc21,inactive: -31.3%,–
CC1(C)OC[C@@H](COC(=O)CCc2ccc(OC[C@@H](O)CNCCNC(=O)N3CCOCC3)cc2)O1,inactive: -11%,–
Cc1[nH]cnc1CN1CCc2c(c3ccccc3n2C)C1=O,inactive: -8.19%,–
Cc1ncc(COP(=O)(O)O)c(CN)c1O,inactive: -29.4%,–
O=C(O)C(O)C(O)(Cc1ccc(O)cc1)C(=O)O (stereo unspecified),inactive: -5.01%,–
CCC1(C2CCN(Cc3ccoc3)CC2)NC(=O)N(CC2COc3ccccc3O2)C1=O (stereo unspecified),inactive: -25.4%,–
Cc1ccc(SC[C@H](Cc2ccccc2)N2CC[C@@H](C(C)(C)C)CCC2=O)cc1,inactive: -1.16%,–
O=C(c1cn(CC2CCCN(Cc3cc4ccccc4s3)C2)nn1)N1CCCC1 (stereo unspecified),inactive: 0.314%,–
N#CCCn1c(=O)c(-c2cccc(C#N)c2)nc2cnc(Oc3ccccc3)nc21,inactive: -16%,–
O=C(C[n+]1cccc(Br)c1)c1ccc(F)cc1,inactive: -17.1%,–
CCOC(=O)Cc1ccc(-c2ccccc2)cc1,inactive: 3.25%,–
O=C(CCCCCN1CCN(c2ccccc2-c2ccccc2)CC1)NC1CCCc2ccccc21 (stereo unspecified),inactive: -11.3%,–
Cc1ccc(CN2C[C@H](Sc3ccccn3)C[C@H]2C(=O)Nc2ccc3sc(C)nc3c2)cc1,inactive: -4%,–
CCNc1ncc2nc(CCc3ccccc3)c(=O)n(-c3ccccc3)c2n1,inactive: -37.6%,–
Cc1cc2nc3c(=O)[nH]c(=O)nc-3n(C[C@H](O)[C@H](O)[C@H](O)CO)c2cc1C,–,active: 79.4 µM and active: 100 µM
CC1CCC(C(C)(C)O)CC2=C1CCC2C (stereo unspecified),inactive: -2.74%,–
c1cncc(CNc2ncncc2-c2ccc3c(c2)OCO3)c1,inactive: -18.2%,–
CC(C)C(N)C(=O)OCCOCn1cnc2c(=O)[nH]c(N)nc21 (stereo unspecified),inactive: -19.4%,–
CC(C)NC[C@@H](O)COc1ccccc1-n1cccc1,inactive: -22.1%,–
Cc1cnc(CNc2cc(-c3c(C)noc3C)ncn2)cn1,inactive: -3.1%,–

Structure (SMILES),activation,Potency
CC(=O)N1CCC2(CCCN(C(=O)Nc3cccc(F)c3)C2)CC1,inactive: -13.9%,–
COC(=O)[C@@H]1C[C@@H](NC(=O)c2cnsn2)CN1Cc1ccc(Cl)cc1,inactive: 2.25%,–
O=C(c1csnn1)N1CCC2(CCCN(c3ccc(-c4ccccc4)cc3)C2)CC1,inactive: 5.32%,–
COc1ccc(-n2c(=O)cnc3cnc(N4CCNCC4)nc32)cc1,inactive: -13.1%,–
Cc1cc(C)c2cccnc2c1O,inactive: -21%,–
COc1cc2c(C=O)c3c4c(cc(OC)c(OC)c4c2cc1OC)CCN3C,inactive: 29.2%,–
CN1[C@@H]2CCC[C@@H]1CC(NC(=O)c1nn(C)c3ccccc13)C2 (stereo partly specified),inactive: -15.3%,–
COc1ccccc1-c1nccc(NCc2cccnc2)n1,inactive: -10.8%,–
CN1CCN(c2cc(-c3ccc(N(C)C)cc3)ncn2)CC1,inactive: -2.28%,–
CC1CCN(CC[C@H]2CCCN2S(=O)(=O)c2cccc(O)c2)CC1,inactive: -6.12% and inactive: -29.8%,–
CC(=O)Nc1ccc(SC[C@H](Cc2ccccc2)N2CC[C@@H](C(C)(C)C)CCC2=O)cc1,inactive: -25.1%,–
CC(=O)NCCNc1ccnc(-c2ccccc2C)n1,inactive: -0.671%,–
COC(=O)C[C@H]1c2ccc(C(F)(F)F)cc2S(=O)(=O)N1Cc1ccccc1,inactive: -7.96%,–
Cc1cnc(-n2ncc(C(=O)NC(C)(C)CO)c2-c2cccs2)nc1-c1ccc(F)cc1,inactive: -14.8%,–
COc1ccc(SC[C@H](Cc2ccccc2)N2CC[C@@H](NC(=O)OCc3ccccc3)CCC2=O)cc1,inactive: 1.78%,–
CCCCC(CC)COC(=O)CC(C(=O)OCC(CC)CCCC)S(=O)(=O)O (stereo unspecified),inactive: -62.8% and inactive: -63%,–
Cc1noc(C)c1-c1cc(NC2CC2)ncn1,inactive: -10.6%,–
O=C(NCc1ccncc1)c1cnn(-c2nccc(-c3cccs3)n2)c1C1CC1,inactive: -7.47%,–
Oc1ccc2c(c1)OCC1c3cc4c(cc3OC21)OCO4 (stereo unspecified),inactive: -9.87%,–
COc1ccc(C)cc1N1C(=O)[C@@H]2C[C@H]1CN2Cc1cccc(OC)c1O,inactive: -11%,–
Cc1cc2c(cc1C)N[C@]1(C[C@H]3CCCC(=O)N4CC[C@@H](C1)[C@@H]34)C(=NCc1ccccc1)N2,inactive: -29.6%,–

Structure (SMILES),activation,Potency
c1ccc2cc(C3=NCCN3)ccc2c1,inactive: 7.5%,–
C#CCN(Cc1ccc(OC)cc1)S(=O)(=O)C=C,inactive: -9.61%,–
CCCS(=O)(=O)NCc1c(C)ncc2c1CCN(C(=O)/C=C/c1cccc(Cl)c1)C2,inactive: -14.5%,–
COc1cc(C(O)CO)ccc1O (stereo unspecified),inactive: -9.96%,–
O=C(c1ccncc1)N1CCC2(CC1)CCN(c1ccc(-c3ccccc3)cc1)CC2,inactive: -7.17%,–
CC[C@H](C)[C@H](N)C(=O)O,inactive: -24.3%,–
CC(=O)SC[C@@H](C)C(=O)N1CCC[C@H]1C(=O)N[C@@H](Cc1ccccc1)C(=O)O,inactive: -8.66%,–
NC[C@@H]1O[C@H](C23CC4CC(CC(C4)C2)C3)Cc2c1ccc(O)c2O,inactive: -17.4% and inactive: 4.75% and inactive: -48.3%,–
c1ccc2c(N3CCCCCC3)nc(CN3CCCCC3c3nccs3)nc2c1 (stereo unspecified),inactive: -20.2%,–
Cc1cnc2ccc3ccccc3c2c1C,inactive: -14.8%,–
Cn1cccc1C(=O)N1CCC[C@@]2(CCN(Cc3nccs3)C2)C1,inactive: -11.3%,–
NC(=O)[C@@H]1CSSCCC(=O)N[C@@H](CCCCN=C(N)N)C(=O)NCC(=O)N[C@@H](CC(=O)O)C(=O)N[C@@H](Cc2c[nH]c3ccccc23)C(=O)N2CCC[C@H]2C(=O)N1 ([Mpa][hArg]GDWPC-NH2; disulfide 1-7),inactive: -3.2%,–
Cc1cccc(CNC(=O)c2cnn(-c3nccc(-c4ccccc4F)n3)c2C)n1,inactive: -15.1%,–
CN1CCN(CCCN2c3ccccc3Sc3ccccc32)CC1,inactive: 2.68%,–
OCCN1CCN(Cc2ccc3c(c2)CN(Cc2cc4ccccc4o2)CCO3)CC1,inactive: -12.7%,–
C=C1C(=O)O[C@@H]2C3OC3(C)CC/C=C(\C)CC[C@@H]12 (stereo partly specified),inactive: -8.65%,–
CCOC(=O)COc1ccc2c(C)c(CCN(CC)CC)c(=O)oc2c1,inactive: -5.18%,–
O[C@@H]([C@H](O)[C@H](O)CBr)[C@H](O)CBr,inactive: 5.93%,–
